# Data as given in PubChem BioAssay AID1347165 (National Center for Advancing Translational Sciences (NCATS), 2019).
# Among all 220,000 compounds or so, about 5,700 (2.6%) were called active. Inconclusive means that the source gave no clear call. Such entries were picked first, then a sample of the others. The call rests on the fitted dose curve; in most records, active means well fitted inhibition curve with a large enough effect; inconclusive means small, poorly fitted or top-dose-only effect; inactive means no such curve, though single readings can be large or run the other way. Where the call is inconclusive, the potency comes from a doubtful curve fit.
# Molecular target: Lysine-specific demethylase 5B (Homo sapiens) (UniProt Q9UGL1)
# Assay: Primary screen for KDM5B Histone Demethylases FDH-coupled qHTS; further: nearly all actives have a fitted effect of over 70% in size
# Settings: FDH-coupled NADH fluorescence (FDH is formaldehyde dehydrogenase); series mostly up to 57.7 µM
# Procedure, shortened: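 qHTS format, multiple compound concentrations. Buffer 50 mM HEPES pH 7.5/0.01% Tween-20; 200 nM KDM5BΔAP final; 10 min compound preincubation; substrate-mix levels 12.5 µM peptide, 25 µM α-KG, 0.25 mM NAD⁺; 30 min RT; ΔRFU.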
# Potency means the concentration at half of the fitted maximal effect; tags describe the fitted curve by direction and shape.
# Chain of UniProt Q9UGL1 (Q9UGL1 whole entry, looked up): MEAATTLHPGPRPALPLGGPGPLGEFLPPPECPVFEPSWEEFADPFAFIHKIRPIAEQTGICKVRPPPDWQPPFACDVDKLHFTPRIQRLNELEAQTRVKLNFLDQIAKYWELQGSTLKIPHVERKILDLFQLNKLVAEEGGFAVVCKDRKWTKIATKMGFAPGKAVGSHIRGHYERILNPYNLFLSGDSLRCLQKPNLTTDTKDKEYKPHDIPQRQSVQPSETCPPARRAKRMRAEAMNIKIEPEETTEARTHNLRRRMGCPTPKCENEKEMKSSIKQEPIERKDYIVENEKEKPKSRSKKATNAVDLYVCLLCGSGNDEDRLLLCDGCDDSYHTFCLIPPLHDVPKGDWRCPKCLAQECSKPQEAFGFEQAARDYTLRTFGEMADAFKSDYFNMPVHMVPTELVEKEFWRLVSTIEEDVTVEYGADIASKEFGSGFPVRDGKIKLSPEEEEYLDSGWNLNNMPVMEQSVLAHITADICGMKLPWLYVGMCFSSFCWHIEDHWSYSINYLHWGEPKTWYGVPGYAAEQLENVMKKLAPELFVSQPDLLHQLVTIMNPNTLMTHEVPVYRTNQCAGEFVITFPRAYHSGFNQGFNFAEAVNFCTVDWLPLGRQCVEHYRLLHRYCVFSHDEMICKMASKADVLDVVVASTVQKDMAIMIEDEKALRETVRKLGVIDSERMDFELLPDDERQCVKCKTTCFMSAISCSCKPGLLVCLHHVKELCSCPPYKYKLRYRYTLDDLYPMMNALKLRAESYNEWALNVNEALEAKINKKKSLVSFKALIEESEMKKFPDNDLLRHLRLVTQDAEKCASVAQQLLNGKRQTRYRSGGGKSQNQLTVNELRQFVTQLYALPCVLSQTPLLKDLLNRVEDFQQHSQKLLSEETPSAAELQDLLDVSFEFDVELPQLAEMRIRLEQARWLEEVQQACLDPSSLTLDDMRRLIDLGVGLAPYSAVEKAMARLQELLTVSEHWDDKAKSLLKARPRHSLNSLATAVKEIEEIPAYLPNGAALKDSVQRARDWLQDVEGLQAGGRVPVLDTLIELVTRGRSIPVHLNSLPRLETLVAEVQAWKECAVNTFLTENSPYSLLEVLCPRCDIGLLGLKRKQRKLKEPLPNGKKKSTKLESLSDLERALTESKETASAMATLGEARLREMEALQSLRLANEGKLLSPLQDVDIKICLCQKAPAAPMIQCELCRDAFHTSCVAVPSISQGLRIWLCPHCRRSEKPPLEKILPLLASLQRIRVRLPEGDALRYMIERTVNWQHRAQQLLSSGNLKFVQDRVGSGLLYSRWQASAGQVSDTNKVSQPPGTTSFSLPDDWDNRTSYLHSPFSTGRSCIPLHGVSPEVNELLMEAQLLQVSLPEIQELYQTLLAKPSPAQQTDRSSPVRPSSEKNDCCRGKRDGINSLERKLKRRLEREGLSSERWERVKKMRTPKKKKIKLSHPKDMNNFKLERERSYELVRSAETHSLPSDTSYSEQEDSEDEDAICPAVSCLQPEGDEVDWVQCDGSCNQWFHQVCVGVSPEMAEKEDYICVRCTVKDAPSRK
row,Structure (SMILES),Potency
1,Cc1ccc2c(=O)cc(C(=O)Nc3ccc(S(=O)(=O)N4CCCCC4)cc3)oc2c1C,inactive
2,O=Cc1ccc(OCc2ccc(Cl)c(Cl)c2)cc1,"inconclusive: 39.8 µM [inhibitor, partial curve, poor fit]"
3,Cn1ncc(N2CCC(NC(=O)C3CCC3)CC2)cc1=O,inactive
4,O=C(c1cccs1)N1CCc2nc(OCC3CC3)ccc2C1,inactive
5,CN(C)C(=O)c1nc(-c2ccc(S(C)(=O)=O)cc2)c2cnccn12,active: 28.2 µM
6,Oc1cccc(-c2nc3ncccn3c2Nc2cccc(C(F)(F)F)c2)c1,"inconclusive: 15.8 µM [inhibitor, partial curve, poor fit]"
7,CCCc1noc(CN(C)C(/C=C/c2ccccc2)C(=O)O)n1 (configuration not stated),"inconclusive: 15.8 µM [inhibitor, partial curve]"
8,CN(C)c1cccc(-c2cc(C(=O)NCCc3ccccn3)c3c(c2)ncn3C)c1,"inconclusive: 28.2 µM [inhibitor, single point]"
9,OCC1CN(c2ccncn2)CC12CCN(Cc1cccc(F)c1F)CC2 (configuration not stated),inactive
10,CC(C)NC(=O)c1nn(-c2ccccc2)nc1CO,"inconclusive: 28.2 µM [inhibitor, single point]"
11,Cc1ccc(CNc2ccc(-c3nc(-c4cccnc4)no3)cc2[N+](=O)[O-])cc1,inactive
12,CCOC(=O)c1[nH]c2ccccc2c1NC(=O)c1cc(Cl)ccc1Cl,"inconclusive: 22.4 µM [inhibitor, partial curve, poor fit]"
13,CO[C@H]1[C@H](NC(=O)c2cc(C)nn2C)c2ccccc2C12CCNCC2,"inconclusive: 10 µM [inhibitor, partial curve]"
14,Cc1ccc(C)c(NC(=O)c2cc(-c3cc(C)oc3C)nc3onc(C)c23)c1,inactive
15,COc1ccc(CNC(=O)CCCCCn2c(=O)[nH]c3ccccc3c2=O)cc1,"inconclusive: 28.2 µM [inhibitor, partial curve, poor fit]"
16,Cc1ccc(Cn2c(C3CCN(C(=O)c4ccccc4)CC3)n[nH]c2=O)cc1,inactive
17,CCc1ccc(C2C=C(c3ccc(OC)cc3)Nc3nnnn32)cc1 (configuration not stated),"inconclusive: 25.1 µM [inhibitor, single point]"
18,CC1(COc2ccccc2)COc2ccc(C(=O)NCCOc3ccccc3)cc2N1 (configuration not stated),active: 39.8 µM
19,Cc1ccc(C(=O)/C=C/c2ccc(-c3ccc(C)c(Cl)c3)o2)cc1,"inconclusive: 12.6 µM [inhibitor, partial curve, poor fit]"
20,CC(=O)Nc1ccc(CN2CC[C@H](c3nc4ccccc4[nH]3)C2)cc1,"inconclusive: 35.5 µM [inhibitor, partial curve, poor fit]"
21,COc1ccc(NC(=O)C(C)(C)C)cc1Cl,inactive

row,Structure (SMILES),Potency
1,COc1ccccc1NC(=O)Cn1c(=O)n(-c2ccccc2Cl)c(=O)c2sc3ccccc3c21,"inconclusive: 3.16 µM [inhibitor, full curve, poor fit]"
2,FC(F)(F)c1ccc(Cl)c(N/N=C/c2ccc(OCc3ccccc3)cc2)c1,inactive
3,Cc1ccc(-n2nc(-c3c(C)nc4scc(CC(=O)NC(C)c5ccccc5)n4c3=O)cc2C)cc1 (configuration not stated),"inconclusive: 17.8 µM [inhibitor, partial curve, poor fit]"
4,CCCCNc1nc2ccccc2nc1NS(=O)(=O)c1ccccc1,"inconclusive: 3.55 µM [inhibitor, single point]"
5,CCc1ccc(C(=O)NCCOC)cc1,inactive
6,O=C1[C@H]2CN(Cc3ccc(F)cc3Cl)C[C@H]2C(=O)N1CCN1CCc2ccccc2C1,"inconclusive: 25.1 µM [inhibitor, partial curve, poor fit]"
7,CC(Oc1ccccc1F)C(=O)Nc1cccc(-c2nc3ccccc3o2)c1 (configuration not stated),"inconclusive: 31.6 µM [inhibitor, partial curve, poor fit]"
8,CC(C)(C)C(=O)Nc1nc2c(s1)C[C@@H]1[C@](C)(CO)[C@H](O)CC[C@@]1(C)[C@@H]2CC(=O)NC1CCCC1,"inconclusive: 31.6 µM [inhibitor, single point]"
9,COc1ccc(Br)cc1CNC(=O)CCCn1c(=O)c2cccn2c2cccnc21,"inconclusive: 39.8 µM [inhibitor, partial curve, poor fit]"
10,COc1ccc(C2C=C(c3ccc(C)cc3)Nc3c(C(=O)Nc4ccccc4)cnn32)cc1 (configuration not stated),"inconclusive: 31.6 µM [inhibitor, single point]"
11,CCN(CC)c1ccc(-c2nnc(SCCS(=O)(=O)c3ccccc3)o2)cc1,"inconclusive: 25.1 µM [inhibitor, partial curve, poor fit]"
12,O=C([C@@H]1C[C@H](c2ccc(F)cc2)N(Cc2ccccc2Cl)C1)N1CCOCC1,"inconclusive: 25.1 µM [inhibitor, single point]"
13,O=C(C(=O)N1CCN(C(=O)c2cc3ccccc3[nH]2)CC1)N1CCCC1,inactive
14,NC(=O)CCS(=O)(=O)CCN1CCCC1c1cccc(F)c1 (configuration not stated),"inconclusive: 39.8 µM [inhibitor, single point]"
15,CC(C)C(=O)N1Cc2ccccc2CC2(CCN(Cc3ccncc3)C2)C1 (configuration not stated),"inconclusive: 63.1 µM [inhibitor, partial curve, poor fit]"
16,Cc1ccccc1S(=O)(=O)N1CCCC2(C1)Nc1cccnc1NC2=NC1CCCC1 (configuration not stated),"inconclusive: 22.4 µM [inhibitor, partial curve, poor fit]"
17,CNC(=O)c1cccc(-c2cnc(Nc3ccc(Cl)cn3)c3c2CCO3)c1,"inconclusive: 35.5 µM [inhibitor, partial curve, poor fit]"
18,COc1ccccc1NC(=O)COC(=O)CCS(=O)(=O)c1ccc(C)c(C)c1,inactive
19,C[C@@H]1CN(c2ccc(C(=O)N3CCC(N4CCOCC4)CC3)cn2)C[C@H](C)O1,"inconclusive: 14.1 µM [inhibitor, single point]"
20,Cn1cccc1CN1CCC2(COc3ccccc3C(=O)N2)C1 (configuration not stated),"inconclusive: 31.6 µM [inhibitor, partial curve]"
21,O=C(NCCNC(=O)C1CC1)c1cc2ccccc2oc1=O,inactive
